Test results: PubChem BioAssay AID720709 (National Center for Advancing Translational Sciences (NCATS), 2013)
In all, about 360,000 compounds went through this assay and about 520 (0.14%) were called active. Inconclusive results, whose numbers are uncertain, are shown with a selection of clear calls. Calls follow the shape of the dose curve; as a rule, active = well fitted inhibition curve with a large enough effect; inconclusive = small, poorly fitted or top-dose-only effect; inactive = no such curve, though single readings can be large or run the other way. No potency is given beside an inconclusive call; the fits are too rough.

molecular target: Rap guanine nucleotide exchange factor 3 (Homo sapiens) (UniProt O95398); assay: qHTS for Antagonist of cAMP-regulated guanine nucleotide exchange factor 3 (EPAC1): primary screen; conditions: EPAC1 GEF assay, Rap1b-BODIPY-GDP exchange fluorescence; series mostly up to 115 µM; also: nearly all actives have a fitted effect of over 50% in size
Potency is read from the fitted curve at half-maximal effect; tags tell the direction and shape of the fitted curve.

Sequence of UniProt O95398 (O95398 whole entry, looked up): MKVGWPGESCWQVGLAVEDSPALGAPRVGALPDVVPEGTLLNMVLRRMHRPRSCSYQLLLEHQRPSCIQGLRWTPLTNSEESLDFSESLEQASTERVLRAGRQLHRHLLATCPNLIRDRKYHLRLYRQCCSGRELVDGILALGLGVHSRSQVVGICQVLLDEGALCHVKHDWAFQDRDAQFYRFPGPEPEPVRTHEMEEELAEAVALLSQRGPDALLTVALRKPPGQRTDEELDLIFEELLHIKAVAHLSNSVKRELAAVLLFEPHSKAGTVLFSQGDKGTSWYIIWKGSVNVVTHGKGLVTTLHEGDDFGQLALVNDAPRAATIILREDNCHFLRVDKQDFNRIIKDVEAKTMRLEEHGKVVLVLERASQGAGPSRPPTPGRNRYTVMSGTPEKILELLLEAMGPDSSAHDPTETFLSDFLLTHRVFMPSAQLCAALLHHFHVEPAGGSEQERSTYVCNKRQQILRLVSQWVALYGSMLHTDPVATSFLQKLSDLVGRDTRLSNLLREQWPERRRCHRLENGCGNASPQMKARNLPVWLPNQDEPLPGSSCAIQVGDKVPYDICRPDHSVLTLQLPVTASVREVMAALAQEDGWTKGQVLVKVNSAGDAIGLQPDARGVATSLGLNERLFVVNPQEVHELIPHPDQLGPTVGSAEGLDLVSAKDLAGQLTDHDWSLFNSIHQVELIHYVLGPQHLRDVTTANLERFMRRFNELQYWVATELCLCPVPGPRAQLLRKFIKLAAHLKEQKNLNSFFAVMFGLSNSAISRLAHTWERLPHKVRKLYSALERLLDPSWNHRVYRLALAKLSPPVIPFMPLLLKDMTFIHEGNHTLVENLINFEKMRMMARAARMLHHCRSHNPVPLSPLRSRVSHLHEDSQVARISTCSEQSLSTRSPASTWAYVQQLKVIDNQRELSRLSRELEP

Compound	Potency
Cc1c(C)c2cc(Cl)c(OCC(=O)Nc3ccccn3)cc2oc1=O	inactive
CN(CCc1ccccn1)C(=O)CCC1CCCN(C(=O)c2n[nH]c3c2CCCC3)C1 (stereo not drawn)	inconclusive [inhibitor, partial curve, poor fit]
CSc1ccccc1OCc1cc(C(=O)NC(C)Cc2cccc(C)n2)no1 (stereo not drawn)	inconclusive [inhibitor, partial curve]
O=C(COC(=O)c1ccccc1NCCO)Nc1ccc(S(=O)(=O)NC2=NCCCCC2)cc1	inconclusive [inhibitor, single point]
COc1ccc(Br)cc1CNC(=O)CCCc1cn(C)c2ccccc12	inconclusive [inhibitor, single point]
CSc1nc2sc3c(c2c(=S)[nH]1)CC(C)(C)OC3	inconclusive [inhibitor, partial curve]
CC1(C)CC(=O)C2=C(C1)N(c1cccc(Cl)c1)C(=O)NC2(C(F)(F)F)C(F)(F)F	inconclusive [inhibitor, partial curve, poor fit]
COc1ccc(S(=O)(=O)N2CCCCC2)cc1NC(=O)c1cccc(S(=O)(=O)N2CC(C)OC(C)C2)c1 (stereo not drawn)	inconclusive [inhibitor, single point]
CCOc1ccc(S(=O)(=O)N(CC)CC)cc1NS(=O)(=O)c1ccc(F)c(F)c1F	inactive
Cc1cccnc1C(NC(=O)C1CCN(Cc2cn(C)c3ccccc23)CC1)c1ccc(Cl)cc1 (stereo not drawn)	inactive
CCOc1ccc(CN2CCC(n3nccc3NC(=O)CCCc3ccccc3)CC2)cc1	inconclusive [inhibitor, partial curve]
C#CCOCCOCCOCCNc1nc(N2CCN(C(=O)CCCCCCCCCCNC(=O)[C@@H](CCSC)n3cc(CCO)nn3)CC2)nc(N2CCN(C(=O)CCCCCCCCCCNC(=O)[C@H]([C@@H](C)CC)n3cc(CCCCN=C(N)N)nn3)CC2)n1	inconclusive [inhibitor, partial curve, poor fit]
CC(=O)c1ccc(NC(=O)C(C)NCc2ccccc2Cl)cc1 (stereo not drawn)	inconclusive [inhibitor, partial curve]
O=C(Cc1cccc2ccccc12)NCCOc1ccccc1F	inconclusive [inhibitor, partial curve]
Cc1ccc(-c2cc(C(=O)NNC(=O)c3csc(N4CCOCC4)n3)c3ccccc3n2)cc1	inconclusive [inhibitor, single point]
CC(O)CNc1nc2sc3c(c2c(=O)n1CCc1ccccc1)CCCCC3 (stereo not drawn)	inconclusive [inhibitor, partial curve]
CCn1c(CCCOc2ccc(Cl)cc2Cl)n[nH]c1=S	inconclusive [inhibitor, partial curve]
O=C(CSCc1ccc(Br)cc1)NC1CC1	inconclusive [inhibitor, partial curve]
CC(=O)NC(C)CCc1ccccc1 (stereo not drawn)	inactive
Cc1ccc2cccc(Oc3ncnc4scc(-c5ccccc5)c34)c2n1	inactive
O=C(O)CCC(=O)NNC(=O)c1cccs1	inconclusive [inhibitor, full curve]
CC(=O)c1ccc(NC(=O)C2(c3ccccc3)CCOCC2)cc1	inactive

Compound	Potency
COc1ccc(N2C(=O)C3CCCN3C2=O)cc1 (stereo not drawn)	inconclusive [inhibitor, single point]
CC(=O)Nc1ccc(NC(=O)C(C)Sc2n[nH]c(-c3cccs3)n2)cc1 (stereo not drawn)	inconclusive [inhibitor, full curve, poor fit]
O=C(c1cccc(S(=O)(=O)Nc2ccccc2Cl)c1)N1CCN(C(=O)c2ccco2)CC1	inconclusive [inhibitor, single point]
O=C(O)c1sc(C(=O)O)c(-c2ccccc2)c1-c1ccccc1	inactive
CN(C)Cc1c(C(=O)N/N=C/c2ccc(OCc3c(F)cccc3Cl)cc2)nnn1-c1nonc1N	inactive
COc1ccc(S(=O)(=O)Cc2ccc(C(=O)NC3CCCCCC3)o2)cc1	inconclusive [inhibitor, single point]
CCOC(=O)c1cccc(NC(=O)Cn2cc3c(n2)CCC(C)C3)c1 (stereo not drawn)	inconclusive [inhibitor, single point]
O=C1CCCC2=C1C(c1ccncc1)c1c(nc(SCc3ccccc3Cl)[nH]c1=O)N2 (stereo not drawn)	inconclusive [inhibitor, partial curve]
c1ccc(CNc2nc3ccccc3[nH]2)cc1	inactive
COc1ccc(-c2csc(NC(=O)C(CC(=O)O)N3CCOCC3)n2)cc1 (stereo not drawn)	inactive
COc1ccc(-c2nn3c(C4CCCCC4)nnc3s2)cc1OC	inactive
O=C(Nc1nc(-c2ccc(Cl)cc2)cs1)C1=COCCO1	inconclusive [inhibitor, single point]
Cc1c(C)c2ccc(OCC(=O)Nc3ccccn3)cc2oc1=O	inconclusive [inhibitor, single point]
CC1CCCN(C(=O)CNC(=O)c2cccs2)C1 (stereo not drawn)	inactive
CC(=O)Nc1ccc(CNc2nc3cc(-c4ccsc4)sc3c(=O)n2C)cc1	inconclusive [inhibitor, partial curve]
Nc1c(S(=O)(=O)O)cc(NC(=O)c2ccccc2)c2c1C(=O)c1ccccc1C2=O	inconclusive [inhibitor, full curve]
Cc1ccc(-n2cccn2)c(CN2CCCC(C(=O)c3ccc4c(c3)OCO4)C2)c1 (stereo not drawn)	inactive
O=C(NCc1cccnc1)c1cc(C2CCCCN2C(=O)OCc2ccccc2)on1 (stereo not drawn)	inconclusive [inhibitor, full curve, poor fit]
O=c1c(/C=C(\O)c2ccc(F)cc2)nc2ccccc2n1-c1ccccc1	inactive
COC(=O)C1(C(=O)OC)c2ccccc2N(S(=O)(=O)c2ccc(C)cc2)C1CC(=O)c1ccccc1 (stereo not drawn)	inactive
CC(=O)Oc1ccc(N2C(=O)C3C(C2=O)C(C(=O)c2ccc(Cl)cc2)N2CCCC32)cc1 (stereo not drawn)	inactive
